{"source": "PubChem BioAssay AID686978", "about": "(National Center for Advancing Translational Sciences (NCATS), 2013)", "note": "Out of some 420,000 compounds screened, about 64,000 (15%) were called active. Inconclusive results, whose numbers are uncertain, are shown with a selection of clear calls. Calls follow the shape of the dose curve; as a rule, active = well fitted inhibition curve with a large enough effect; inconclusive = small, poorly fitted or top-dose-only effect; inactive = flat fitted curve, though single readings scatter. No potency is given beside an inconclusive call; the fits are too rough. % is scaled to controls: 0 for no effect and ±100 for the full control effect; potency is read from the fitted curve at half-maximal effect; tags tell the direction and shape of the fitted curve."}
{"assay": "qHTS for Inhibitors of human tyrosyl-DNA phosphodiesterase 1 (TDP1): qHTS in cells in absence of CPT; also: nearly all actives have a fitted effect of over 55% in size", "details": "DT40 Tdp1-/- hTDP1 cells, no CPT, ATP luminescence, 48 h; activity change, negative = growth inhibition: at 46.2 µM (top of the series) unless noted", "summary_of_the_method": "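DT40 Tdp1-/-;hTDP1 cells, no CPT (DMSO vehicle only), 400 cells/well; compounds pin-transferred; ≥48 hr, 37 °C; CellTiter-Glo 30 min RT dark, luminescence read.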"}
{"smiles": "CCc1ccc(CNC(=O)CCCn2ccc3cc(S(=O)(=O)N4CCCC4)ccc32)cc1", "Potency": "active: 4.11 µM"}
{"smiles": "COc1cccc(Nc2nc3ccccc3n3nnnc23)c1", "Potency": "inconclusive [inhibitor, single point]"}
{"smiles": "CCOc1ccc(CCNC(=O)c2cc3c(-c4ccccc4F)nn(C)c3s2)cc1", "activity change, negative = growth inhibition": "inconclusive: -34.6% [inhibitor]"}
{"smiles": "CCCN(CC(=O)Nc1ccccc1OC)C(=O)c1ccc(=O)[nH]c1", "Potency": "inactive"}
{"smiles": "COc1ccc(C(=O)Nn2c(SCC(=O)N3CCC(C)CC3)nc3ccccc3c2=O)cc1", "Potency": "inactive"}
{"smiles": "OC(CNc1nc(C(F)(F)F)nc2ccccc12)c1ccccc1", "note": "(stereo not drawn)", "Potency": "inconclusive [inhibitor, single point]"}
{"smiles": "O=C(COC(=O)c1ccc(Cl)nc1)Nc1cc(S(=O)(=O)N2CCCCC2)ccc1Cl", "Potency": "inconclusive [inhibitor, single point]"}
{"smiles": "CC(C)c1ccc(S(=O)(=O)/N=C2\\C=C(NS(=O)(=O)c3ccccc3)C(=O)c3ccccc32)cc1", "Potency": "inconclusive [inhibitor, single point]"}
{"smiles": "Cc1ccc(S(=O)(=O)c2nc(-c3ccc(F)cc3)oc2SCC(=O)NC2CCCCC2)cc1", "Potency": "inconclusive [inhibitor, single point]"}
{"smiles": "CC(C)(O)C#Cc1cccc(-c2nc(C(=O)NCCCN3CCOCC3)cc3c2[C@H](CCO)N(S(=O)C(C)(C)C)C3)c1", "note": "(stereo partly drawn)", "Potency": "inactive"}
{"smiles": "O=C(CSc1nnc(-c2cccc(S(=O)(=O)N3CCOCC3)c2)n1C1CCCCCC1)NCc1ccccc1", "Potency": "inconclusive [inhibitor, single point]"}
{"smiles": "O=C(c1ccccc1Br)N1CCCC(c2nc(-c3cccs3)no2)C1", "note": "(stereo not drawn)", "Potency": "inconclusive [inhibitor, single point]"}
{"smiles": "Cc1nc(-c2ccccc2)sc1C1(C)CC(c2c(Cl)cccc2Cl)=NO1", "note": "(stereo not drawn)", "Potency": "inconclusive [inhibitor, single point]"}
{"smiles": "COc1ccc(CCNC(=O)Cc2ccc(OC)c(OC)c2)cc1OC", "Potency": "inconclusive [inhibitor, partial curve, poor fit]"}
{"smiles": "CCC(Cn1nnc2ccccc2c1=O)NC(=O)Nc1ccccc1OC", "note": "(stereo not drawn)", "activity change, negative = growth inhibition": "inconclusive: -30.4% [inhibitor]"}
{"smiles": "O=C1CCCN1CCCNC(=S)Nc1ccc(F)c(Cl)c1", "Potency": "inconclusive [inhibitor, single point]"}
{"smiles": "Cc1ccccc1NC(=S)Nc1ccc(Br)cc1", "Potency": "inactive"}
{"smiles": "Cc1ccc(S(=O)(=O)N2CCCCC2)cc1NC(=O)CSCC(=O)O", "Potency": "inactive"}
{"smiles": "Cc1cc(C(=O)N/N=C/c2ccc3ccccc3c2)n[nH]1", "Potency": "inconclusive [inhibitor, single point]"}
{"smiles": "CCOC(=O)C1=C[C@@H](c2ccccc2)N(S(=O)(=O)c2ccc(C)cc2)[C@H]1c1ccc(F)cc1", "Potency": "inconclusive [inhibitor, single point]"}
{"smiles": "COc1nc(N/N=C/c2cc3c(cc2Br)OCO3)nc(N2CCOCC2)n1", "Potency": "inconclusive [inhibitor, partial curve]"}
{"smiles": "Nc1ccc(C(Cc2ccnc3ccccc23)Cc2ccnc3ccccc23)cc1", "Potency": "inconclusive [inhibitor, single point]"}
{"smiles": "CCOC(=O)[C@@H]1[C@H]2COc3cc(OC)ccc3[C@@H]2N2C(=O)N(c3ccc(Cl)cc3)C(=O)[C@]12C", "Potency": "inconclusive [inhibitor, single point]"}
{"smiles": "CCn1c2ccccc2c2nnc(SCCN3CCOCC3)nc21", "Potency": "inconclusive [inhibitor, single point]"}
{"smiles": "COC(=O)c1cc2oc(C)cc2n1Cc1ccccc1Cl", "Potency": "inconclusive [inhibitor, single point]"}
{"smiles": "OCCN(Cc1ccccc1)C(=S)Nc1ccc(Cl)cc1Cl", "Potency": "inconclusive [inhibitor, single point]"}
{"smiles": "COCCNC(=O)/C(C#N)=C/c1c(N2CCN(c3ccc(OC)cc3)CC2)nc2c(C)cccn2c1=O", "Potency": "active: 23.1 µM"}
{"smiles": "O=C(C1=C[C@H](c2csc3ccccc23)C[C@H](OCc2ccc(CO)cc2)O1)N1CCN(Cc2ccccc2)CC1", "Potency": "inconclusive [inhibitor, single point]"}
{"smiles": "CCCCNC(=S)N(C)N=C1CCC(c2ccccc2)CC1", "note": "(stereo not drawn)", "Potency": "inconclusive [inhibitor, single point]"}
{"smiles": "Cc1cc(N(C)C)cc(C)c1N=Nc1cc[n+]([O-])cc1", "Potency": "inconclusive [inhibitor, single point]"}
{"smiles": "CC(C)C(=O)N1CCC1(C)C(=O)NS(=O)(=O)c1cccs1", "note": "(stereo not drawn)", "Potency": "inactive"}
{"smiles": "CCCCn1c(=O)nc2n(-c3ccc(OC)cc3)c3ccccc3cc-2c1=O", "Potency": "inconclusive [inhibitor, single point]"}
{"smiles": "Cc1ccc(-n2nnnc2SCc2nnc(-c3ccccc3Br)o2)c(C)c1", "Potency": "inconclusive [inhibitor, partial curve]"}
{"smiles": "OC(Cc1ccncc1)(c1ccccc1)c1ccccc1", "Potency": "inconclusive [inhibitor, single point]"}
{"smiles": "C=CCn1c(Cc2ccc(OC)cc2)nnc1SCC(=O)c1cccc([N+](=O)[O-])c1", "Potency": "inconclusive [inhibitor, single point]"}
{"smiles": "COC(=O)CN(C#N)c1nc(NCc2ccccc2)nc(OC)n1", "Potency": "inconclusive [inhibitor, single point]"}
{"smiles": "COCCNC(=O)CCCn1c(SCC(=O)Nc2ccc(F)cc2)nc2c(sc3ccccc32)c1=O", "Potency": "inconclusive [inhibitor, partial curve]"}
{"smiles": "COc1ccc2[nH]c3c(c2c1)CCNC3c1ccc([N+](=O)[O-])o1", "note": "(stereo not drawn)", "Potency": "active: 6.51 µM"}
{"smiles": "O=[N+]([O-])c1ccc(O)c(C2=NNC(c3ccccc3F)C2)c1", "note": "(stereo not drawn)", "Potency": "active: 16.4 µM"}
{"smiles": "O=C(C1=C[C@@H](c2ccc(Br)cc2)C[C@@H](OCc2ccc(CO)cc2)O1)N1CCOCC1", "Potency": "inconclusive [inhibitor, single point]"}
{"smiles": "CC1CN(C(=O)c2cccc(S(=O)(=O)N3CCOCC3)c2)CC(C)O1", "note": "(stereo not drawn)", "Potency": "inactive"}
{"smiles": "Cc1cccc(NC(=O)Cn2nc(-c3ccco3)ccc2=O)c1C", "Potency": "inactive"}
{"smiles": "CCN(CC)c1ccc(C(=O)OCC(=O)N(C)Cc2ccccc2)cc1", "Potency": "inconclusive [inhibitor, single point]"}
{"smiles": "COc1ccc(C(=O)n2nc(N)c3cc4ccc(C)cc4nc32)cc1OC", "Potency": "inactive"}
{"smiles": "Cc1ccc(NC(=S)N(CCCN2CCCC2)Cc2cccn2Cc2ccc(Cl)cc2)cc1C", "Potency": "active: 20.6 µM"}
{"smiles": "CCOC(=O)Cn1c(=N)n(Cc2ccc(C(C)(C)C)cc2)c2ccccc21", "Potency": "active: 13 µM"}
{"smiles": "CC1CCN(C(=O)c2c(NC(=O)c3ccccc3Cl)sc3c2CCC(C(C)(C)C)C3)CC1", "note": "(stereo not drawn)", "Potency": "inactive"}
{"smiles": "O=C(NCC1CCCO1)c1cccc(Oc2c(Cl)cccc2[N+](=O)[O-])c1", "note": "(stereo not drawn)", "Potency": "inconclusive [inhibitor, partial curve]"}
{"smiles": "COc1cccc(C(O)c2ncc(-c3ccc(C(F)(F)F)cc3)[nH]2)c1", "note": "(stereo not drawn)", "Potency": "inconclusive [inhibitor, single point]"}
{"smiles": "CCc1noc(C)c1C(=O)Oc1ccc(N(C)S(=O)(=O)c2ccc(C)cc2)cc1", "Potency": "active: 2.59 µM"}
{"smiles": "Cc1cccc(CSCCNC(=O)Nc2ccccc2)c1", "activity change, negative = growth inhibition": "inconclusive: -35% [inhibitor]"}
{"smiles": "Cc1ccc(NC(=O)Cn2nc(C(=O)O)c3ccccc3c2=O)cc1S(=O)(=O)N1CCCCCC1", "Potency": "inconclusive [inhibitor, partial curve]"}
{"smiles": "O=C(NC(=S)Nc1ccc(CN2CCOCC2)cc1)c1ccc([N+](=O)[O-])cc1", "Potency": "inactive"}
{"smiles": "COc1ccccc1C1NC(=O)c2n[nH]c(-c3cccs3)c21", "note": "(stereo not drawn)", "Potency": "inconclusive [inhibitor, single point]"}
{"smiles": "CCc1ccc(CN(Cc2cccnc2)C(=O)/C=C/c2ccc(OC)cc2)cc1", "Potency": "active: 14.6 µM"}
{"smiles": "O=C(Nc1ccccc1C(=O)Nc1nncs1)c1ccccc1", "Potency": "inconclusive [inhibitor, single point]"}
{"smiles": "O=C(O)c1cc2c(s1)-c1ccccc1CC2", "Potency": "inactive"}
{"smiles": "Clc1cccc(Cl)c1/C=N\\Nc1nccs1", "Potency": "inconclusive [inhibitor, single point]"}
{"smiles": "COCCCNC(=O)COc1ccc(-c2nccc(-c3ccccn3)n2)cc1", "Potency": "inconclusive [inhibitor, single point]"}
{"smiles": "COc1ccc(Cl)cc1NC(=O)CN(C)C(=O)Cc1ccc2c(c1)CCC2", "Potency": "inconclusive [inhibitor, single point]"}
{"smiles": "O=C(NCc1ccco1)c1ccc(-c2ccc(Cl)cc2)o1", "Potency": "inactive"}
{"smiles": "CCSc1nc2c(c(=O)[nH]c(=O)n2C)n1Cc1ccc(Cl)cc1", "Potency": "inconclusive [inhibitor, partial curve, poor fit]"}
{"smiles": "COc1ccc(OC)c(C2SCCN2S(=O)(=O)c2cccc(C(F)(F)F)c2)c1", "note": "(stereo not drawn)", "Potency": "inconclusive [inhibitor, single point]"}
{"smiles": "O=C(c1csnn1)N1CCC[C@@]2(CCN(c3cccc(-c4ccccc4)c3)C2)C1", "Potency": "inconclusive [inhibitor, single point]"}
{"smiles": "Cc1cc2nc(-c3ccc(OCc4ccccc4C)cc3)cc(C(F)(F)F)n2n1", "Potency": "active: 16.4 µM"}
{"smiles": "CN(c1ccc(C(=O)NC2CCCC2)cc1)S(=O)(=O)c1ccc(Cl)cc1", "Potency": "inconclusive [inhibitor, single point]"}
{"smiles": "COc1cccc(Nc2nc3cc(C)ccc3cc2C)c1", "Potency": "inconclusive [inhibitor, single point]"}
{"smiles": "COc1ccc(-c2csc(NC(CO)c3nc4ccccc4n3CCOCCO)n2)cc1", "note": "(stereo not drawn)", "Potency": "inconclusive [inhibitor, single point]"}
